Measurements published in publication PMC4558169.
These are yes or no findings as the source states them, for the method shown. For some of these results: In cells and extracts the contact can be indirect. Some entries that bind do so weakly or less than the wild type. For some of these results: Where a sequence is shown, tags or fusion partners need not be part of it. One block for each binder: values may come before it.

By UniProt entry, the sequences of proteins in these tests, tags left out.
UniProt P13861: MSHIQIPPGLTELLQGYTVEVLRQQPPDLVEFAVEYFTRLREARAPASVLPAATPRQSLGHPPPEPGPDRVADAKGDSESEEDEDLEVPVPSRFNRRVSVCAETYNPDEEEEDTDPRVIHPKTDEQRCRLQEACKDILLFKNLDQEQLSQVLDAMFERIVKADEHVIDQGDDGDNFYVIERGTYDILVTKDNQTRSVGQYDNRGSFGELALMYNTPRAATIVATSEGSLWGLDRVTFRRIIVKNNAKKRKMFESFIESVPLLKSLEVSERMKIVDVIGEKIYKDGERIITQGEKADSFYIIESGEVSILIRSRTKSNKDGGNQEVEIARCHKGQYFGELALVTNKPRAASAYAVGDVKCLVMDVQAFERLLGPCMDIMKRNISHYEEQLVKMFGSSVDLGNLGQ

Tests used:
[1] = target: T1, Flag-tagged RAI16 fragment 251-500 (UniProt Q86V87); test: co-IP; two tagged proteins (Flag, Ha, His or Myc) co-expressed in HEK293T cells; lysates immunoprecipitated with an anti-tag antibody, partner detected by immunoblot with the other anti-tag antibody; in Figure 4E cells untreated, treated 10 min with forskolin or with forskolin + PKImyr
T1 sequence: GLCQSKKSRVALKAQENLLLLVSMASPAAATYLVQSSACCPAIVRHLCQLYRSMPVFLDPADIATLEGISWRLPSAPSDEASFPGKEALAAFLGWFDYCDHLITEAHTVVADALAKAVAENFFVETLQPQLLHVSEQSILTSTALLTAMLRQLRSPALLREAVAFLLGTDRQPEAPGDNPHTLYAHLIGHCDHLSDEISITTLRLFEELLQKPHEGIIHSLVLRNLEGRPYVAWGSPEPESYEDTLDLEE

[2] = target: Flag-tagged retinoic acid induced 16 (RAI16), full length (UniProt Q86V87); test: as above
[3] = target: endogenous RAI16 (human (endogenous in HEK293T)) (UniProt Q86V87); test: co-IP; endogenous proteins of HEK293T lysates, immunoprecipitated with an antibody against one protein and blotted for the other
[4] = target: T2, Flag-tagged RAI16 S325A mutant (UniProt Q86V87); test: co-IP; Flag-tagged RAI16 or its mutants expressed in HEK293T cells, alone or with Ha-tagged PKA-RIIα; anti-Flag immunoprecipitation, endogenous 14-3-3θ detected with anti-14-3-3θ antibody; cells untreated, treated with forskolin or with forskolin + PKImyr
T2 sequence: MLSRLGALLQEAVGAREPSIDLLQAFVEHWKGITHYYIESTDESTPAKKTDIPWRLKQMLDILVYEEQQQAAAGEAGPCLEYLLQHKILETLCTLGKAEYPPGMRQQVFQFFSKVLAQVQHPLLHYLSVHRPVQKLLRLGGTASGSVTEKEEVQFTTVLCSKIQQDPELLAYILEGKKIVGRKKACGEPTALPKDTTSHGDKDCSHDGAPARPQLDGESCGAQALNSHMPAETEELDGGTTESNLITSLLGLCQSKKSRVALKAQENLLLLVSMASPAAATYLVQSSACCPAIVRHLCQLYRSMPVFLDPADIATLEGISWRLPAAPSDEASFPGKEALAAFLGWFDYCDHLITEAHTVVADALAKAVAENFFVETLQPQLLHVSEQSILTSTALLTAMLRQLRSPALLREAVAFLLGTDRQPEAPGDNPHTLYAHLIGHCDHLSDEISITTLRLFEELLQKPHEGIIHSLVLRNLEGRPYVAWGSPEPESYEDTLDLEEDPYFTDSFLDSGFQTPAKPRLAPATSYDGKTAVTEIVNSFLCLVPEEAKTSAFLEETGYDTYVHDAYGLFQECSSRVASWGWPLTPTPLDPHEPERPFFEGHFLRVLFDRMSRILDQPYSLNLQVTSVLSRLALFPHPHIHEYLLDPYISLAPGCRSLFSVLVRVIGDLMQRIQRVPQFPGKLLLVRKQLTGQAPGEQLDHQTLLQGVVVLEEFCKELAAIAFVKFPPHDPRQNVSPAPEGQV

[5] = target: Flag-tagged retinoic acid induced 16 (RAI16), full length (UniProt Q86V87); test: as above
[6] = target: Ha-tagged PKA-RIIα (type II regulatory subunit of PKA), full length (human) (UniProt P13861); test: co-IP; competition: peptide sHt31 or sYF against the co-precipitation of Flag-tagged RAI16 and Ha-tagged PKA-RIIα from HEK293T cells (not told whether added to cells or lysate); only the binder purified
[7] = target: His-tagged fusion protein of PKA-RIIα, purified (human) (UniProt P13861); test: ELISA; 2 ug purified PKA-RIIα coated overnight at 4°C, blocked with 3% BSA in PBST; purified RAI16 alone or with sHt31 or sYF, 1 h at 37°C; detected with anti-RAI16 antibody, HRP anti-rabbit IgG and TMB; both purified

- binding [1]: binds
- binding [2]: binds
B1: Myc-tagged 14-3-3θ, full length (protein, UniProt P27348 1-245)
chain: MEKTELIQKAKLAEQAERYDDMATCMKAVTEQGAELSNEERNLLSVAYKNVVGGRRSAWRVISSIEQKTDTSDKKLQLIKDYREKVESELRSICTTVLELLDKYLIANATNPESKVFYLKMKGDYFRYLAEVACGDDRKQTIDNSQGAYQEAFDISKKEMQPTHPIRLGLALNFSVFYYEILNNPELACTLAKTAFDEAIAELDTLNEDSYKDSTLIMQLLRDNLTLWTSDSAGEECDAAEGAEN

- binding [3]: binds
- binding [4]: no binding
- binding [5]: binds
B2: endogenous 14-3-3θ (protein, UniProt P27348 1-245)
chain: B1 chain

- binding [6]: binds
- binding [7]: binds
B3: Peptide sYF (Aa348-373 of RAI16) (peptide)
peptide: YCDHLITEAHTVVADALAKAVAENF
